Data: the RNAGym collection of RNA variant scans (doi:10.1093/nar/gkz1192)
The source gives no read counts; variants with many changes may rest on few reads.

B1: CPEB3 Ribozyme (parent)
chain: UAACAGGGGGCCACAGCAGAAGCGUUCACGUCGCAGCCCCUGUCAGAUUCUGGUGAAUCUGCGAAUUCUGCUGUAUAUCUC

Variants of: B1
Experiment: self-cleavage, relative activity (ratio to wild type); higher = more cleavage; in vitro, sequencing
Method in brief: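 After error-prone PCR and barcoding, CPEB3 ribozyme mutant libraries were transcribed with T7 RNA polymerase at 37°C for 5 hours, then given 15 min with DNase I before an EDTA stop, and they cleaved during both steps. Reverse transcription with template switching preceded Illumina sequencing. Relative activity divides a variant's cleaved/total read fraction by the unmutated ribozyme's. At least 5 reads were required per variant, and three batches were averaged.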

Variant	self-cleavage
UAACAGGGCGCCACAGCAGAAGCGUUCACGCCGCAGCCCCUGUCAGUUUCUGGUGAAUCUGCGAACUCCGCUGUAUAUCUC [G9C U31C A47U U66C U69C]	0.06
UAACAGGGCGCCACAGCAGAAGCGUUCACGCCGCAGCCCCUGUCAGAUUCUGGUGGAUCUGCGAAUUCUGCUGUAUAUCUC [G9C U31C A56G]	0.25
UAACAGGGCGCCACAGCAGAAGCGUUCACGUCGCAGCCCCCGUCAGAUUCUGGUGAAUCUGCGGAUUCUGCUGUUUAACUC [G9C U41C A64G A75U U78A]	0.04
UAACAGGGCGCCACAGCAGAAGCGUUCACGUCGCAGCCCCUGCCAGAUUCUGGUGAAUCUGCGGAUUCUGCUGUAUAUCUC [G9C U43C A64G]	0.16
UAACAGGGCGCCACAGCAGAAGCGUUCACGUCGCAGCCCCUGUCAGACUCUGGUGAAUCUGCGAAUUCUGCCGUAUACCUC [G9C U48C U72C U78C]	0.4
UAACAGGGCGCCACAGCAGAAGCGUUCACGUCGCAGCCCCUGUCAGAUUCUGGAGAGUCCGCGAAUUCCGCUGUAUAUCUC [G9C U54A A57G U60C U69C]	0.12
UAACAGGGCGCCACAGCAGAAGCGUUCACGUCGCAGCCCCUGUCAGAUUCUGGGGAAUCUGCGAAUUCUGCCGUAUAUCUC [G9C U54G U72C]	0.08
UAACAGGGUGCCUCGGCGGAAGCGUUCACGUCGCAGCCCCUGUCAGAUUCUGGUGAAUCAGCGAAUUCUGCUAUAUAUCGC [G9U A13U A15G A18G U60A G73A U80G]	0.4
UAACAGGGUGCCUCAGCAAAAGCGUGCACGUCGCAGCCCCAGUCAGAUUUUGGUGAAUCUGCGAAUUCUGCUGUAUAUCUC [G9U A13U G19A U26G U41A C50U]	0.05
UAACAGGGUGCCACCGCAGAAGCGUCCACGUCGCAGCCCCUGUCAGAUUCUGGUGUACCUGCGAAUUCUGCCGUAUAACUC [G9U A15C U26C A56U U58C U72C U78A]	0.28
UAACAGGGUGCCACGGCAGGAGCGUCCGCGUCGCAGCCCCUGUCAGAUUCUGGUGAAUCUGCGAAUUCUGCAGUAUAUCUC [G9U A15G A20G U26C A28G U72A]	0.05
UAACAGGGUGCCACGGCAGGAGCGUUCACGCCGCAGCCCCUGUCAGAUUCUGGUGAAUCUGCGAAUUCGGCUGUAUAUCUC [G9U A15G A20G U31C U69G]	0.21
UAACAGGGUGCCACGGCAGAAGCGUUCUCGUCGCAGCCCUUGUCUGAUUCUGGUGAAUCUGUGAAUUCUGCAGUAUAUCUC [G9U A15G A28U C40U A45U C62U U72A]	0.03
UAACAGGGUGCCACGGCAGAAGCGUUCACGUCGCAGCCCCUGUCAGACUCUGGUGAAUCUGCGAACUCUGCUGUAUAUCUC [G9U A15G U48C U66C]	0.23
UAACAGGGUGCCACUGCAGAGGCGUUCACGUCGCAGCCCCUGUCAGAUUCUGGUGAAUCUGCGAAUUCUGCUGUAUAUCUC [G9U A15U A21G]	0.17
UAACAGGGUGCCACUGCAGAAGCGUCCACGUCGCAGCCCCUGUCAGAUUCAGGUGAAUCUGCGAACUCUGCUGUAUACCUC [G9U A15U U26C U51A U66C U78C]	0.07
UAACAGGGUGCCACAGCGGGAGCGUUCACGUCGCAGCCCCUGUCAGAUUCUGGUGAAUCUGCGUACUCUGCUGUAUAUCUC [G9U A18G A20G A64U U66C]	0.05

Variant	self-cleavage
UAACAGGGUGCCACAGCUGAAGCGCUCACGUCGCAGCCCCUGUCAGAUUCUGGUGAAUCUGCGAAUUCUGCUUUAUAUCUC [G9U A18U U25C G73U]	0.08
UAACAGGGUGCCACAGCAGGAGCGUUCACGUCGCUGCCCCUGUCAGAUUCUGGUGAAUCCGCGAAUUCUGCUGUAUAUCUC [G9U A20G A35U U60C]	0.18
UAACAGGGUGCCACAGCAGGAGCGUUCACGUCGCAGCCCCUGUCAGAUUCAGGUGAAUCUGCGAAUUCCGCUGUACAUCUC [G9U A20G U51A U69C U76C]	0.18
UAACAGGGUGCCACAGCAGAGGCGCUCACUUCGCAGCCCCUGUCAGAUUCUGGUGAAUCUGCGAAUUCUGCUGUAUAUCUC [G9U A21G U25C G30U]	0.16
UAACAGGGUGCCACAGCAGAGGCGUCCACGACGCAGCCCCUGUCGGAUUCUGGUGAAUCUGCGAAUUCUGCUGUAUAUCUC [G9U A21G U26C U31A A45G]	0.12
UAACAGGGUGCCACAGCAGAGGCGUUCACGUCGCAGCCCCCGUCAGAUUCUGGUGAAUCUGCGAAUUCUGCUGUAUAUCUC [G9U A21G U41C]	0.09
UAACAGGGUGCCACAGCAGAAGCGUUCGCGUCGCAGCCCCUGUCAGAUUCUGGUGUAUCUGCGAAUUCUGCUGUAUAUCUC [G9U A28G A56U]	0.17
UAACAGGGUGCCACAGCAGAAGCGUUCGCGUCGCAGCCCCUGUCAGAUUCUGGUGAAUCUGCGAAUUCUGCUGUAUAUCCC [G9U A28G U80C]	0.15
UAACAGGGUGCCACAGCAGAAGCGUUCUCGUCGCAGCCCCUGUCAGGUUCUGGUGAAACUGCGAAUUCUGCAGUAUAUCUC [G9U A28U A47G U58A U72A]	0.04
UAACAGGGUGCCACAGCAGAAGCGUUCACGUCGCUGCCCCUGUCAGAUUCUGGUGAUUCUGCGGAUUCUGCUGUAUAUCUC [G9U A35U A57U A64G]	0.08
UAACAGGGUGCCACAGCAGAAGCGUUCACGUCGCAGCCCCUGUCAGAUUCUGGUGGAUCUGCGAAUUCAGCCGUAUUUCUC [G9U A56G U69A U72C A77U]	0.03
UAACAGGGUGCCACAGCAGAAGCGUUCACGUCGCAGCCCCUGUCAGAUUCUGGUGUAUCUGCGUAUUCUGCUGUAUAUCUC [G9U A56U A64U]	0.08
UAACAGGGUGGCACAGCAGAAGCGUUCACGUCGCAGCCCCUGUCAGAUUCUGGUGAAUCUGCGAAGUCUGCUGUAUAUCUC [G9U C11G U66G]	0.07
UAACAGGGUGCGACAGCAGAAGCGUUCACGUCGCAGCCCCUGUGUGAUUCUGGUGAGUCUGCGAAUUCUGCUGUAUAUCUC [G9U C12G C44G A45U A57G]	0.04
UAACAGGGUGCUACAGCAGAAGCGUUCACGUCGCAGCUCCUGUCAGAUUCUGGUGAAUCUGCGAAUUCUGCUGUAUACCUC [G9U C12U C38U U78C]	0.52
UAACAGGGUGCUACAGCAGAAGCGUUCACGUCGCAGCCCCUGUCAGAAUCUGGUGAAUCUGCGAAUUCUGCUGUUUAUCUC [G9U C12U U48A A75U]	0.14
UAACAGGGUGCCACAGUAUAAGCGUUCACGUCGCAGCCUCUGUCUGAUUCUGGUGAAUCUGCGAACUCUGCCGUAUAUCUC [G9U C17U G19U C39U A45U U66C U72C]	0.04
